# Measured values: PubChem BioAssay AID624418 (National Center for Advancing Translational Sciences (NCATS), 2012)
# The whole screen tested about 410,000 compounds, of which about 530 (0.13%) were called active. The inconclusive results got no clear call from the source; some entries with a clear call stand among them for comparison. Calls follow the shape of the dose curve; as a rule, active = well fitted inhibition curve with a large enough effect; inconclusive = small, poorly fitted or top-dose-only effect, or another doubt; inactive = no such curve, though single readings can be large or run the other way. Potencies beside an inconclusive call are fits to weak or partial responses and may not hold up.
# Assay: qHTS of GLP-1 Receptor Inverse Agonists: Cytotox Screen
# Conditions: HEK293 cAMP-luciferase reporter cells, luminescence, 24 h; activity change, negative = inhibition: at 38.3 µM (top of the series) unless noted
# How it was run: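 A 23 nL compound transfer followed 12 hours of cell culture at 37 deg C; exposure then lasted 24 hr. Luciferase assay detection reagent was dispensed and plates read for luminescence after a 12 min room-temperature wait.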
# % is scaled to controls: 0 for no effect and ±100 for the full control effect; potency is read from the fitted curve at half-maximal effect.
Structure (SMILES),Potency,"activity change, negative = inhibition"
COC(=O)C1=C(C(=O)OC)[C@@H]2Nc3ccccc3[C@@]23C[C@@H](C(=O)OC)N(C(=O)c2ccc(Br)cc2)C3=N1,"inconclusive: 12.6 µM [inhibitor, single point]",–
CN(C)CCCN(Cc1ccccc1)C(=S)Nc1ccc(F)c(Cl)c1,"inconclusive: 7.08 µM [inhibitor, partial curve, poor fit]",–
CCOc1ccc(NC(=O)C(C)Oc2ccccc2C(=O)Nc2cccc(Cl)c2Cl)cc1 (centres undefined),"inconclusive: 28.2 µM [inhibitor, single point]",–
CCOC(=O)NNC(=O)c1[nH]c2ccc(Br)cc2c1-c1ccccc1,"inconclusive: 10 µM [inhibitor, partial curve, poor fit]",–
CN(C)Cc1c(C(=O)Nc2ccccc2)[nH]c2ccccc12,inactive,–
O=C(CSc1nc(C2CC2)nc2ccccc12)N1c2ccccc2Sc2ccc(C(F)(F)F)cc21,"inconclusive: 28.2 µM [inhibitor, single point]",–
CC(C)OC(=O)c1cccc(NC(=O)c2ccccc2)c1,inactive,–
CCOc1ccc(CSC2=NCCN2)cc1[N+](=O)[O-],"inconclusive: 7.94 µM [inhibitor, partial curve, poor fit]",–
Cc1nn(-c2ccccc2)c(C)c1/C=N/NC(=O)c1cc(C23CC4CC(CC(C4)C2)C3)[nH]n1,"inconclusive: 10 µM [inhibitor, single point]",–
Clc1ccc(-c2nc(CSc3ccccn3)cs2)cc1,inactive,–
O=C(CSc1cccc2cccnc12)Nc1ccc(S(=O)(=O)N2CCOCC2)cc1,"inconclusive: 28.2 µM [inhibitor, single point]",–
Cc1ccccc1-n1c([C@@H]2C[C@H]2c2ccccc2)n[nH]c1=S,inactive,–
CCCCN1C(=O)c2[nH]nc(-c3ccccc3O)c2C1c1ccc(OCc2ccccc2)cc1 (centres undefined),inactive,–
COc1cccc2cc(C(=O)NCc3ccc(Cl)cc3)c(=N)oc12,inactive,–
CCOC(=O)N1CCN(c2cc(NCCC(=O)O)c3c4c(onc24)-c2ccccc2C3=O)CC1,"inconclusive: 11.2 µM [inhibitor, single point]",–
Cc1ccc(NC(=O)C(=Cc2ccc(C(=O)O)cc2)C(=O)Nc2ccc(C)cc2C)c(C)c1,"inconclusive: 8.91 µM [inhibitor, partial curve]",–
COc1ccccc1NC(=O)CSc1nnc(NC(=O)Nc2ccc(C)cc2)s1,"inconclusive: 12.6 µM [inhibitor, single point]",–
O=C(NCCCN1CCOCC1)c1cc2c(s1)CCCC2,inactive,–
COc1ccccc1CNC(=O)CN(C)c1nn2c(=O)cc(C)nc2s1,inactive,–
CN1/C(=C\C=C(C#N)C#N)C(C)(C)c2ccccc21,inactive,–
COc1ccc(C2C(C)C3(O)CC(C#N)(C(=O)N3)C2(C#N)C#N)cc1 (centres undefined),"inconclusive: 28.2 µM [inhibitor, single point]",–
CCc1nnc(NC(=O)CSc2nnc(-c3ccccc3O)o2)s1,"inconclusive: 7.94 µM [inhibitor, partial curve, poor fit]",–
O=C(CCCNC(=O)c1ccc(Cl)cc1)Nc1cccc(S(=O)(=O)N2CCCCC2)c1,inactive,–

Structure (SMILES),Potency,"activity change, negative = inhibition"
c1ccc(-c2nc(NCc3cccs3)c3ccccc3n2)cc1,"inconclusive: 2.24 µM [inhibitor, full curve]",–
CCOc1cccc2sc(N(CCCN(C)C)C(=O)c3ccc(S(=O)(=O)N(C)c4ccccc4)cc3)nc12,"inconclusive: 17.8 µM [inhibitor, partial curve, poor fit]",–
CCOC(=O)c1cc(C#N)c(SCC(=O)O)[nH]c1=O,inactive,–
Cc1ccc(/C=N/NC(=O)C2CC(=O)N(c3ccccc3)C2)s1 (centres undefined),"inconclusive: 11.2 µM [inhibitor, partial curve]",–
C[C@@H]1CN([C@@H](C)CO)C(=O)c2cc(NS(=O)(=O)c3cccs3)ccc2O[C@H]1CN(C)Cc1ccc(C(F)(F)F)cc1,"inconclusive: 8.91 µM [inhibitor, partial curve]",–
CCOCCCNC(=O)c1cc(Sc2cccc(Cl)c2)nc2ccccc12,inactive,–
Cc1cc(NC(=O)c2cc(-c3ccncc3)nc3ccccc23)ccc1Br,"inconclusive: 8.91 µM [inhibitor, partial curve, poor fit]",–
CCOC(=O)C1Nc2ccccc2C2C(O)C(O)CC12 (centres undefined),active: 7.08 µM,–
COC(=O)c1ccc(OCC(=O)c2ccc(C)c(C)c2)cc1,inactive,–
COc1ccc(-c2nnnn2-c2ccccc2OC)cc1,"inconclusive: 7.94 µM [inhibitor, partial curve, poor fit]",–
CC(C)[C@H](NC(=O)C1CC(=O)N(c2ccc(F)cc2)C1)C(=O)N1CCCCC1 (some centres undefined),inactive,–
CC(=O)N1c2ccc(C)cc2Sc2c1ccc1ccccc21,inactive,–
Cc1[nH]n(-c2ncc(-c3ccc(Cl)cc3)s2)c(=O)c1C(c1ccc(Cl)cc1)C(C#N)C#N (centres undefined),inactive,–
COc1ccc(C(=O)c2c(C)c3ccccc3n2CC(O)CNC(C)C)cc1 (centres undefined),active: 8.91 µM,–
O=C(CCS(=O)(=O)c1nc(-c2cccs2)cc(C(F)(F)F)n1)Nc1cc(Br)ccc1O,"inconclusive: 31.6 µM [inhibitor, single point]",–
CCc1ccc(OCCNc2cc(N3CCNC(C)C3)ccc2[N+](=O)[O-])cc1 (centres undefined),"inconclusive: 28.2 µM [inhibitor, single point]",–
O=C(CP(=O)(c1ccccc1)c1ccccc1)N/N=C/c1cc(Br)cc(Br)c1O,–,inactive: 13.4% [at 1.53 µM]
CCCn1c(SCc2nc(-c3ccccc3OCC)no2)nnc1-c1ccc(Cl)cc1,inactive,–
COc1ccc2c(c1OC)C(=O)OC2Nc1nc(-c2ccccc2)cs1 (centres undefined),"inconclusive: 7.94 µM [inhibitor, partial curve, poor fit]",–
Cc1ccc(NC(=O)CCC(=O)c2ccc(Cl)s2)nc1,inactive,–
COc1ccc(/C=N/NC(=O)c2ccn[nH]2)cc1COc1ccc(Cl)cc1Cl,"inconclusive: 10 µM [inhibitor, partial curve]",–
O=C(NC(c1ccccc1)c1ccc2ccccc2n1)C1CCN(Cc2cccc(C(F)(F)F)c2)CC1 (centres undefined),"inconclusive: 10 µM [inhibitor, single point]",–
CCN1CCN(c2ccc(S(=O)(=O)N3CCCCC3)cc2NC(=O)c2ccc(OC(F)F)cc2)CC1,"inconclusive: 11.2 µM [inhibitor, single point]",–

Structure (SMILES),Potency,"activity change, negative = inhibition"
Cc1cc(C)c2nc(N(CCCN(C)C)C(=O)c3ccc4c(c3)OCCO4)sc2c1,"inconclusive: 22.4 µM [inhibitor, single point]",–
COc1ccc(C(=O)NC(=S)N2CCC(C)CC2)cc1Br,"inconclusive: 8.91 µM [inhibitor, partial curve]",–
COc1ccc(S(=O)(=O)N2CN(Cc3ccco3)c3nc4ccccc4nc32)cc1,inactive,–
COc1ccc(Br)cc1C(=O)Nc1cccc(NC(=O)c2ccco2)c1,"inconclusive: 12.6 µM [inhibitor, single point]",–
O=C(C=Cc1cccc(Cl)c1)c1ccccc1,"inconclusive: 10 µM [inhibitor, single point]",–
CCOC(=O)c1cnn(-c2ccc(Cl)cc2)c1C1CCN(C(=O)OC(C)(C)C)CC1,inactive,–
CCOc1ccc(C(=O)CCC(=O)N(CC)CC(=O)Nc2c(F)cccc2F)cc1,inactive,–
Clc1ccccc1NN(Cc1ccncc1)c1ccccc1Cl,"inconclusive: 10 µM [inhibitor, single point]",–
CCCCN(C)CCNC(=O)c1cc2c(=O)[nH]c3ccccc3c2n1C,"inconclusive: 28.2 µM [inhibitor, single point]",–
COc1ccc(/C=N/Nc2cc(N3CCCC3)nc(N3CCCC3)n2)cc1,"inconclusive: 7.94 µM [inhibitor, partial curve, poor fit]",–
CCN(CC)CCCn1c2c(c(SCC(=O)Nc3nc4ccccc4s3)nc1=O)CCC2,"inconclusive: 28.2 µM [inhibitor, single point]",–
Cc1ccc(COCC(CC(C)C)N2CCN(C(=O)c3cccc(C(F)(F)F)c3)CCC2=O)cc1 (centres undefined),"inconclusive: 5.01 µM [inhibitor, full curve, poor fit]",–
O=C(CN1CCCN(S(=O)(=O)c2ccc(Br)cc2)CC1)Nc1cccc(C(F)(F)F)c1,inactive,–
CC(=O)Nc1ccc(C2C(=O)c3ccccc3C2=O)cc1,inactive,–
COc1cc(C2c3cc4c(cc3OC(NCc3ccccc3)C2C)OCO4)cc(OC)c1OC (centres undefined),"inconclusive: 1 µM [inhibitor, full curve, poor fit]",–
CCCc1cc(-c2n[nH]c(C)c2-c2ccc(C(=O)OCC)o2)c(O)cc1O,"inconclusive: 20 µM [inhibitor, single point]",–
COC(=O)c1cc(S(=O)(=O)NCC2CCN(CCc3cccs3)CC2)c[nH]1,"inconclusive: 12.6 µM [inhibitor, partial curve, poor fit]",–
Clc1ccc(Nc2ccc(-n3ccnc3)nn2)cc1Cl,"inconclusive: 20 µM [inhibitor, single point]",–
Cc1cccc(OCCCN2CCCCCC2)c1,"inconclusive: 15.8 µM [inhibitor, partial curve, poor fit]",–
Cc1ccc(NC(=S)N=Nc2c(O)n(C)c3ccc(S(=O)(=O)N4CCOCC4)cc23)cc1,active: 0.631 µM,–
Cc1ccc(O)c(C(=O)CC(=O)c2ccc(C(C)(C)C)cc2)c1,inactive,–
COc1cc(O)c(C(CC(=O)N2CCCC2)c2cc(OC)c(OC)c(OC)c2)c(OC)c1 (centres undefined),"inconclusive: 28.2 µM [inhibitor, single point]",–
O=C(/C=C/c1ccco1)NC(=S)Nc1ccccc1Br,"inconclusive: 10 µM [inhibitor, single point]",–
